Legend:
[1] = biological target: T1, IGF-1R phosphorylation (Homo sapiens, UniProt P08069); test: Inhibition of IGF-1 and IGF-2 mediated IGF-1R phosphorylation in MCF-7 cells (ELISA); type: cell-based; conditions: Fabs
T1 construct: wild type IGF-1R expressed on MCF-7 tumor cells; endogenous in cells; host or cells: MCF-7
Experimental: Cell lines: IGF1R expressing human breast carcinoma cell line MCF-7 (NCI) were maintained at 37° C. and 5% CO2 in MEM eagle (ATCC) containing 10% FBS, 1× non-essential amino acids, 2 mM L-glutamine, 1 mM sodium pyruvate and 1000 U/ml penicillin and streptomycin. Cells were sub-cultured twice weekly for maintenance and assay, and used with a maximum of 12 passages.
MCF-7 cells were plated in 2 ml growth media at 2×10^5 to 4.0×10^5 cells/well in Ploy-D-Lysine coated 12 well plates (BD Biosciences, #35-6470) and cultured at 37° C., 5% CO2. […]
Cell lysates were added to ELISA plates pre-coated with IGF-1Rp antibody (Clone 1-2, Biosource International, #AHR0361) and incubated for 2 hours. Following which plates were washed and the plate bound phosphorylated receptor was detected with the biotin labeled anti-phosphotyrosine antibody 4G10 (Catalog #16-103, Upstate Cell Signaling Solutions (Lake Placid, N.Y. (now part of Millipore, Concord, Mass. (USA)) and streptavidin-HRP (BD Pharmingen, #554066). Assay is developed by addition of TMB substrate (Kierkegaard & Perry, #50-76-00) and color stopped by addition of […] (LabChem, Cat#LC25830-1). Optical density is measured at 450 nm using a Molecular Devices plate reader and percent inhibition over the ligand control is calculated for each antibody-ligand sample. […]

[2] = biological target: T2, hIGF-1R(1-462)-Fc (Homo sapiens, UniProt P08069); test: SPR binding of immobilized antibodies to truncated hIGF-1R(1-462)-Fc versus hIGF-1R(1-903)Fc; conditions: surface immobilized antibody
T2 construct: host or cells: CHO
Excerpt: Next, we investigated whether M13-C06 binds the putative ligand binding domains of IGF-1R (L1-CR-L2). We generated a truncated version of the receptor containing the N-terminal three domains (residues 1-462) fused to an IgG1-Fc and compared its ability to bind M13-C06, M14-C03, and M14-G11 to that of the full-length receptor ectodomain construct, hIGF-1R-Fc, using surface plasmon resonance (SPR).

[3] = biological target: T3, hIGF-1R-Fc (Homo sapiens, UniProt P08069); test: Antibody cross-blocking ELISA with Zenon-labeled αIR3; type: binding
T3 construct: (3) human IGF-1R(1-903)-Fc (hIGF-1R-Fc, Biogen Idec); host or cells: CHO
Experimental: The ability of various antibodies to block murine αIR3 was determined using “Zenon-Fab-HRP” labeled αIR3 and hIGF-1R-Fc. αIR (IgG1) was ZENONO®-Fab-HRP labeled as described by the manufacturer (Invitrogen Cat. No. Z25054). Briefly, 50 μL of 2 μg/mL hIGF-1R-Fc in 1×PBS were coated per well of a 96-well clear MaxiSorp plate (Nunc) for 2 hours at RT (no shaking). Plates were washed with 1×PBS and blocked overnight at 2-8° C. using a PBS/1% BSA solution. Plates were washed and incubated with a 100 μL mixture of Zenon-labeled αIR3 (40 ng/mL) and inhibitor antibody for 1 hour at RT. Inhibitor antibodies were serially diluted (5-fold dilutions) from 40 μg/mL to 3 ng/mL. A control inhibition was performed by serial dilution of a non-IGF-1R specific IgG4 isotype control antibody with Zenon-labeled αIR3. Plates were washed and 100 μL/well SureBlue Reserve TMB Microwell Peroxidase Substrate (KPL, Cat. No. 53-00-01) was added to the wells. Detection of Zenon-labeled αIR3 was performed by reading the absorbance at 650 nm every 5 minutes using a Wallac 1420-041 Multilabel Counter plate reader.

[4] = biological target: T4, recombinant human IGF-1R-10His (Homo sapiens, UniProt P08069); test: SPR, antibodies and Fabs on IGF-1R-His captured via PENTA-His antibody; type: binding; conditions: full-length antibodies, 64 nM to 0.5 nM
T4 construct: denoted hIGF-1R(1-902)-His10, was purchased from R&D systems (Cat. No. 305-GR-050); purchased R&D Systems 305-GR-050

[5] = system: association of IRS-1 with the p85 regulatory subunit of PI3K; test: Co-immunoprecipitation of IRS-1 with p85 in NSCLC cell lines; type: cell-based, human; conditions: 10 nM, 24 hours, 5% FBS
Experimental: Cell lysates were immunoprecipitated with an anti-p85 antibody and subjected to western blot analysis with anti-IRS-1 (top blot) and anti-p85 (bottom blot) antibodies (FIG. 23).
For this assay, human lung tumor cell lines A549, Calu-6, and NCI-1299 cells were purchased from ATCC and maintained in RPMI medium 1640 containing 10% fetal bovine serum (FBS). […] Cell lysates were prepared in 1% Triton X-100 lysis buffer from Cell Signaling Technology, Inc. (Danvers, Mass. USA)). For immunoprecipitation, anti-p85 antibody (Cat #06-649, Upstate Cell Signaling Solutions (now part of Millipore, Concord, Mass. (USA) was added to the lysate (4 ug of antibody per 1-2 mg of lysate) and incubated at 4° C. overnight. The immunocomplex was then captured by mixing with protein-G agarose beads for 2 hours at 4° C. The immunoprecipitates were washed with ice-cold lysis buffer and boiled in 2×LDS (Lithium Dodecyl Sulfate) sample buffer before separation by NUPAGE® Novex 4-12% Bis-Tris Gel electrophoresis (Invitrogen Corp., Carlsbad, Calif. (USA)), and transfer to nitrocellulose membranes. IRS-1 (Cat # 06-248, Upstate) and p85 (Cat # 06-649, Upstate) antibodies were purchased from Millipore and immunoblotting was performed according to the manufacturer's protocols.

[6] = system: BxPC3 xenograft; test: BxPC3 xenograft, combination with gemcitabine; type: in vivo, mouse
Experimental: Gemcitabine alone, M13.C06.G4.P.agly antibody alone, and sham injections of the delivery vehicle alone were administered as negative controls. Tumor volume at the start of the therapy was approximately 200 mm^3.

Inhibition of IGF-1R Phosphorylation IGF-1 ([1]; IGF-1 stimulated)	Inhibition of IGF-1R Phosphorylation IGF-2 ([1]; IGF-2 stimulated)	binding to truncated hIGF-1R(1-462)-Fc compared with full-length hIGF-1R-Fc [2]	αIR3 cross-blocking [3]	binding to immobilized recombinant human IGF-1R (SPR) [4]	Molecule	inhibition of association of IRS-1 with p85 ([5]; A549)	inhibition of association of IRS-1 with p85 ([5]; Calu-6)	inhibition of association of IRS-1 with p85 ([5]; H1299)	efficacy in combination with Gemcitabine ([6]; antibody 15 mg/kg)	efficacy in combination with Gemcitabine compared to the single agent treatments ([6]; antibody 30 mg/kg twice a week or 60 mg/kg weekly, gemcitabine 80 mg/kg every 3 days for 4 weeks)
+ (>30%@10 ug/ml)	+++ (>30%@0.1ug/ml)	equivalent binding	+++ (+++ = 50-70% competition)	strong binding	M14-G11: anti-IGF1-R antibody, competitive blocker of IGF-1 and IGF-2 (antibody, V domains shown, Antibody variable heavy chain sequence; Antibody variable light chain sequence) VH: EVQLLESGGGLVQPGGSLRLSCAASGFTFSNYPMYWVRQAPGKGLEWVSRISSSGGRTVYADSVKGRFTISRDNSKNTLYLQMNSLRAEDTAVYYCARDRWSRSAAEYGLGGYWGQGTLVTVSS VL: DIQMTQSPDSLAVSLGERATINCKSSQSVLYSSNNKNYLAWYQQKPGQPPKLLIYLASTRESGVPDRFSGSGSGTDFTLTISSLQAEDVAVYYCQQYYSTWTFGQGTKVEIK					
					M13-C06.G4.P.agly: full-length hinge-modified aglycosylated human gamma 4, kappa antibody with the binding domain of Fab M13-C06 (antibody) heavy: EVQLLESGGGLVQPGGSLRLSCAASGFTFSIYRMQWVRQAPGKGLEWVSGISPSGGTTWYADSVKGRFTISRDNSKNTLYLQMNSLRAEDTAVYYCARWSGGSGYAFDIWGQGTMVTVSSASTKGPSVFPLAPCSRSTSESTAALGCLVKDYFPEPVTVSWNSGALTSGVHTFPAVLQSSGLYSLSSVVTVPSSSLGTKTYTCNVDHKPSNTKVDKRV[human IgG4 Fc with S228P T299A (EU numbers) not written out] light: DIQMTQSPLSLSASVGDRVTITCQASRDIRNYLNWYQQKPGKAPKLLIYDASSLQTGVPSRFGGSGSGTDFSFTIGSLQPEDIATYYCQQFDSLPHTFGQGTKLEIKRTVAAPSVFIFPPSDEQLKSGTASVVCLLNNFYPREAKVQWKVDNALQSGNSQESVTEQDSKDSTYSLSSTLTLSKADYEKHKVYACEVTHQGLSSPVTKSFNRGEC	inhibited	not in Calu-6	inhibited	additive efficacy	additive efficacy
